Reference: PubChem BioAssay AID624296 (National Center for Advancing Translational Sciences (NCATS), 2012)
The campaign covered roughly 350,000 compounds. About 9,900 (2.8%) were called active. The shares of active, inactive and inconclusive entries below differ from those in the screen. Calls come from the whole dose curve; as a rule, active = well fitted activation curve with a large enough effect; inconclusive = small, poorly fitted or top-dose-only effect; inactive = no such curve, though single readings can be large or run the other way. No potency is given beside an inconclusive call; the fits are too rough.

Assay: A quantitative high throughput screen for small molecules that induce DNA re-replication in MCF 10a normal breast cells. Note: nearly all actives have a fitted effect of over 50% in size.
Details: MCF 10A DNA re-replication, Hoechst nuclear intensity, 48 h; series mostly up to 46.1 µM
Potency is the fitted concentration of half-maximal effect; tags give direction and shape of the fitted curve.

Row | Structure (SMILES) | Potency
1 | COc1ccccc1N(CC(=O)N1CCN(c2ccccc2)CC1)S(=O)(=O)c1ccc(C)cc1 | inconclusive [activator, partial curve, poor fit]
2 | CCCCn1cnc2c(SCc3ccccc3Cl)nc(N)nc21 | active: 16.4 µM
3 | CCCCCCC(=O)N=Nc1c(O)[nH]c2ccc([N+](=O)[O-])cc12 | inactive
4 | CS(=O)(=O)c1ccc(C(=O)NCCN2C(=O)S/C(=C\c3cccnc3)C2=O)cc1[N+](=O)[O-] | active: 13 µM
5 | COC(=O)c1c[nH]n2c(=O)c(Cl)c(C)nc12 | inconclusive [activator, single point]
6 | Cc1ccc(C)c(NC(=O)CN(C)C(=O)c2cc(-c3cccs3)nn2-c2ccccc2)c1 | inconclusive [activator, single point]
7 | CC(=O)NCCc1nc2cc(NC(=O)c3ccc(F)cc3)ccc2n1C | inactive
8 | Oc1ccc(O)c(Cc2nc3ccccc3[nH]2)c1 | inconclusive [activator, single point]
9 | Cc1ccc(NC(=O)c2ccc(F)cc2)cc1S(=O)(=O)N1CCCCCC1 | inconclusive [activator, single point]
10 | CCC(=O)NCCn1ccc2ccccc21 | inactive
11 | NCCCCCc1nnc(SCc2ccccc2Cl)o1 | inactive
12 | CCN(CC)C(=O)CN1CCC(c2nc3cc(C)c(C)cc3[nH]2)CC1 | inconclusive [activator, single point]
13 | CCOC(=O)c1c(NC(=O)C(C)Sc2cccc[n+]2[O-])sc2c1CCN(Cc1ccccc1)C2 (stereo unspecified) | inconclusive [activator, single point]
14 | CCOc1ccc2[nH]c(=O)c(CN(Cc3ccco3)C(=O)c3ccc(Br)cc3)cc2c1 | active: 16.4 µM
15 | Cc1ccn2cc(C34CC5CC(CC(C5)C3)C4)nc2c1 | inconclusive [activator, single point]
16 | CC1NC(=S)N(C2CCCCC2)C1=O (stereo unspecified) | inconclusive [activator, partial curve, poor fit]
17 | O=c1[nH]nc(SCCS(=O)(=O)c2ccc(F)cc2)n1-c1ccccc1C(F)(F)F | active: 18.4 µM
18 | CCN(CC)S(=O)(=O)c1ccc(N2CCOCC2)c(NC(=O)CC2OC(=O)c3ccccc32)c1 (stereo unspecified) | inactive
19 | Cc1ccc(C(=O)NCC(=O)Nc2ccc(C)c(S(=O)(=O)Nc3ccc(Cl)cc3)c2)s1 | inconclusive [activator, single point]
20 | O=C(CC12CC3CC(CC(C3)C1)C2)Nc1ccccc1N1CCOCC1 | inconclusive [activator, single point]
21 | C[C@H](CO)N1C[C@H](C)[C@@H](CN(C)Cc2ccc(-c3ccccc3)cc2)Oc2c(NC(=O)Cc3ccccc3)cccc2C1=O | inconclusive [activator, partial curve, poor fit]
22 | Cc1ccccc1/C=C/c1nc2ccccc2c(=O)[nH]1 | active: 18.4 µM

Row | Structure (SMILES) | Potency
23 | CSc1sc(-c2nnc(SCC(=O)Nc3ccc(Cl)cc3)n2C)c2c1C=CCC2 | inconclusive [activator, partial curve]
24 | Cc1cccc(CN2CCN(C(=O)c3ccccc3F)CC2)c1 | inactive
25 | CCn1ccnc1CN(C)C(=O)c1ccc2nc(Cc3ccc(OC)cc3)oc2c1 | inconclusive [activator, partial curve, poor fit]
26 | CC(=O)/C(=N\Nc1ccccc1)Oc1ccc(Br)cc1 | inconclusive [activator, partial curve, poor fit]
27 | Clc1ccccc1OCCCCN1CCCC1 | inactive
28 | CCOc1cc(/C=C(/NC(C)=O)C(=O)O)cc(Cl)c1OCc1ccc(Br)cc1 | inconclusive [activator, full curve, poor fit]
29 | COc1ccc(CCN(C)Cc2c(O)ccc3cc(Br)ccc23)cc1OC | inconclusive [activator, single point]
30 | CCO/C=C/C(O)(CNC(=O)c1ccc(C(C)(C)C)cc1)C(F)(F)F (stereo unspecified) | inconclusive [activator, partial curve, poor fit]
31 | O=C(COc1ccc2c(c1)OCO2)Nc1nccs1 | inactive
32 | Cc1ccc2nc(/C(C#N)=C\c3ccc(OC(=O)c4cccs4)cc3)[nH]c2c1 | inconclusive [activator, partial curve, poor fit]
33 | CCOc1cc(/C=N/N=C2/NC(=O)C(CC(=O)O)S2)ccc1OS(=O)(=O)c1ccc(C)cc1 (stereo unspecified) | inconclusive [activator, partial curve]
34 | O=C(Cn1cnc2c(OCc3ccccc3)ncnc21)NCCc1c[nH]c2ccccc12 | inactive
35 | C=CC[C@H](CC(=O)N(CCO)Cc1ccccc1)C(=O)N[C@H](COC(=O)[C@@H](CC=C)Cc1ccc(F)cc1)C(C)(C)C | inconclusive [activator, partial curve, poor fit]
36 | CCc1ccc(S(=O)(=O)c2ccc(-n3nc(C)cc3N)cc2)cc1 | inactive
37 | CCC(C)n1c(SCC(=O)/C(C#N)=C(\C)N)nc2ccccc2c1=O (stereo unspecified) | inactive
38 | CC(C)c1nc(N2CCCC2)c(C#N)c2c1CCCC2 | inconclusive [activator, partial curve, poor fit]
39 | COc1ccc(/C=N/Nc2cc(C)nc(-n3nc(C)cc3C)n2)cc1 | inconclusive [activator, single point]
40 | CCNC(=O)NC(=O)CSc1ccc(S(=O)(=O)N2CCOCC2)cn1 | inactive
41 | CC(C)[C@H](NC(N)=O)C(=O)NCCc1ccc(Cl)cc1Cl | inconclusive [activator, full curve, poor fit]
42 | CCCCCn1nc(C(=O)N2CCc3ccccc32)c2ccccc2c1=O | inactive
43 | C#CCOCCOCCOCCNc1nc(N2CCN(C(=O)CCCCCCCCCCNC(=O)[C@@H](CCSC)n3cc(CCO)nn3)CC2)nc(N2CCN(C(=O)CCCCCCCCCCNC(=O)[C@H]([C@@H](C)CC)n3cc(CCCCN=C(N)N)nn3)CC2)n1 | inactive
44 | COc1ccc(NC(=O)N(C2CCCCC2)C2CCN(C(C)C)CC2)c(OC)c1 | inactive

Row | Structure (SMILES) | Potency
45 | CCOc1ccc(S(=O)(=O)Nc2cc(S(=O)(=O)N(CC)CC)ccc2N2CCCC2)cc1 | inactive
46 | COc1ccc(CCNC2=C(Cl)C(=O)N(CCc3ccccc3)C2=O)cc1OC | inconclusive [activator, single point]
47 | Cn1nc(-c2ccccc2)c(C(=O)Nc2ccc(Cl)cc2)c1Cl | inactive
48 | C=C[C@H]1C(O[C@@H]2O[C@H](CO)[C@@H](O)[C@H](O)[C@H]2O)OC=C2C(=O)N3CCc4cc(OC)c(O)cc4[C@H]3C[C@H]21 (stereo partly specified) | inconclusive [activator, full curve, poor fit]
49 | COc1ccccc1NC1=Nc2cccc3cccc1c23 | inconclusive [activator, partial curve, poor fit]
50 | Cc1cccc(NC(=O)Nc2ccc(Cl)c(Cl)c2)n1 | inconclusive [activator, single point]
51 | NC(=O)CN1C(=O)C(O)(CC(=O)/C=C\c2ccc3c(c2)OCO3)c2ccccc21 (stereo unspecified) | inconclusive [activator, single point]
52 | C=CCN(Cc1cccc(OC)c1OC)C(=O)Oc1ccccc1 | inactive
53 | CC1CC(C)CN(CCCNC(=O)c2ccc3c(c2)NC(=O)CS3)C1 (stereo unspecified) | inactive
54 | Cc1ccc(NS(=O)(=O)c2cc([N+](=O)[O-])ccc2NNC(=S)Nc2cc(C)ccc2C)c(C)c1 | inconclusive [activator, single point]
55 | CC1CCC(NC(=O)c2cccc(S(=O)(=O)N3CCN(c4ccc(F)cc4)CC3)c2)CC1 (stereo unspecified) | inactive
56 | CCOC(=O)C1(CCOc2ccccc2)CCN(Cc2cccc3c2OCO3)CC1 | inconclusive [activator, partial curve, poor fit]
57 | O=C1CC(c2ccco2)Cc2nc(Nc3nc(-c4ccccc4)c4ccccc4n3)ncc21 (stereo unspecified) | inconclusive [activator, partial curve, poor fit]
58 | CCN1CCc2c(sc(N)c2C#N)C1 | inconclusive [activator, full curve, poor fit]
59 | CN(CC(=O)NC(=O)NCc1ccccc1)Cc1ccc(Cl)c(Cl)c1 | inconclusive [activator, single point]
60 | CCOc1cc(NS(=O)(=O)CC)c(OCC)cc1NC(=O)c1ccco1 | inconclusive [activator, partial curve, poor fit]
61 | Cc1c(OCC(=O)N2C[C@H]3C[C@@H](C2)c2cccc(=O)n2C3)ccc2c3c(c(=O)oc12)CCCC3 | inconclusive [activator, full curve, poor fit]
62 | CCC(C)Nc1nc(N)c([N+](=O)[O-])c(Nc2cc(OC)ccc2OC)n1 (stereo unspecified) | inconclusive [activator, single point]
63 | COc1ccc(Nc2nc(C(=O)N3CCc4ccccc4C3)cs2)cc1 | inconclusive [activator, single point]
64 | COc1ccc(N2C(=O)CC(Sc3nc(C)c4c(n3)CCCC4)C2=O)cc1 (stereo unspecified) | inconclusive [activator, partial curve, poor fit]
65 | Cc1ccccc1N=C(N)Nc1ccccc1C | inactive
66 | CC(CCCN(C)C)C(Cc1ccccc1)c1ccccc1 (stereo unspecified) | inconclusive [activator, partial curve, poor fit]
